# Laboratory results published in paper PMC4336329 (PLoS ONE, 2015).
# The whole screen tested about 310,000 compounds, of which about 14,000 (4.5%) showed an effect of 50% or more. Effects have a minus sign here. The list shows a part of the results.
# Target: human ether-à-go-go-related gene (hERG) potassium channel (human, UniProt Q12809)
# Test: primary screen, population patch clamp on CHO cells stably expressing hERG
# 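Further: peak tail current of the secondary pulse compared with the same well before compound.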
# human ether-à-go-go-related gene (hERG) potassium channel, sequence (Q12809 whole entry, looked up): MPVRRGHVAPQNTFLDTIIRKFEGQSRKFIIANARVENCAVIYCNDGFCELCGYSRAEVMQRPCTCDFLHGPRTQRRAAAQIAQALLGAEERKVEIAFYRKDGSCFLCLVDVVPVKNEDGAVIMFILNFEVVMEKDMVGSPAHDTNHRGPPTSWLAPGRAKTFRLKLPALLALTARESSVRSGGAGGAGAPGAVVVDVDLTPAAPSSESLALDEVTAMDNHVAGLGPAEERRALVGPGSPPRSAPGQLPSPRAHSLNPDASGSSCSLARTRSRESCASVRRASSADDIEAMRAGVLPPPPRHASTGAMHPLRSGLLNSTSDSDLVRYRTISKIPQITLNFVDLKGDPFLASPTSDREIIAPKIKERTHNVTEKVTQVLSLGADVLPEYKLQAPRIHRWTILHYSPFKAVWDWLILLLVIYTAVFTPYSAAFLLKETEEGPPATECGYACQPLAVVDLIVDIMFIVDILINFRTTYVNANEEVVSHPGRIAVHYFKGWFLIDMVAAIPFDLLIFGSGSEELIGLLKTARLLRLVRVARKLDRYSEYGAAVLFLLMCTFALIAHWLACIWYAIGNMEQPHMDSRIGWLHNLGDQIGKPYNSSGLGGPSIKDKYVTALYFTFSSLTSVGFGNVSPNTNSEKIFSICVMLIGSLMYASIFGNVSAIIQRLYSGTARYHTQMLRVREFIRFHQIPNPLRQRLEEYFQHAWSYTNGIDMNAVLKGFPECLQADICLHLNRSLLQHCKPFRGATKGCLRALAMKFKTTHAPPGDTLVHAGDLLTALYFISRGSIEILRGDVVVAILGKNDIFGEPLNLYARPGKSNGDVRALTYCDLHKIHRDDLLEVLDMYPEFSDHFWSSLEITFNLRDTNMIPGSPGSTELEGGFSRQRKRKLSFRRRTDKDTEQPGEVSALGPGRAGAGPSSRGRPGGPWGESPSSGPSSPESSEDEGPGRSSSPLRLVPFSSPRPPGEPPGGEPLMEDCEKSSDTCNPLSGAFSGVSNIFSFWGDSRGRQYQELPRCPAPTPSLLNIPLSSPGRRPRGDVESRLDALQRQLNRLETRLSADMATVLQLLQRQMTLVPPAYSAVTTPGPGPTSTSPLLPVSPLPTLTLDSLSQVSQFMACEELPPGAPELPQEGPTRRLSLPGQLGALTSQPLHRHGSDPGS
row,Compound,"hERG current change (%, negative = inhibition) at 10uM [%]"
1,O=C(CNC(=O)c1ccccc1Br)N/N=C\c1cc([N+](=O)[O-])cc(Br)c1O,-13.8
2,Nc1cc(=O)[nH]c(SCC(=O)c2ccc(O)cc2O)n1,17.4
3,Cc1ccc2nc(C)c(CN3CCN(c4ccc([N+](=O)[O-])cc4Cl)CC3)n2c1,-69.3
4,COc1ccc(-n2c(COc3cccc(C)c3)n[nH]c2=S)cc1,13.8
5,Cc1cccc(N(CC(=O)NC(C)(C)C)C(=O)CNC(=O)c2cccs2)c1C,8.9
6,N#Cc1c(-c2ccncc2)cc(-c2ccc(F)cc2)nc1N,-8.81
7,CCOC(=O)c1c(C)n(C)c2ccc(OCC(O)CNC(CC)CO)cc12 (stereo not drawn),-7.11
8,O=C(Nc1ccc(F)cc1)c1nc[nH]c1C(=O)Nc1ccc([N+](=O)[O-])cc1,17.6
9,Cc1c2cnn(CC(=O)Nc3c(F)c(F)cc(F)c3F)c(=O)c2c(C)n1Cc1ccccc1F,-10.1
10,CC(C)c1nc2cc(C(=O)N3CCN(c4cnccn4)CC3)ccc2o1,8.52
11,O=S(=O)(Nc1ccc(Cl)cc1)c1cccc2cccnc12,12.8
12,Cc1ccc(-c2cc(C(=O)NCc3ccco3)c3ccccc3n2)s1,-15
13,COc1cccc(/C=N/n2c(=S)n(C)c3ccccc32)c1OC,5.65
14,COc1ccc(-c2nnc(SC(C)C(=O)Nc3cccc(Cl)c3)o2)cc1 (stereo not drawn),-7
15,NC(=O)c1ccccc1N/C=C/C(=O)c1ccccc1,0.363
16,Cn1cc(/C=C(\NC(=O)c2ccccc2)C(=O)NCCN2CCOCC2)c2ccccc21,4.78
17,O=C(OCC(=O)N(C1CCCCC1)C1CCCCC1)c1ccncc1,-34.6
18,C/C(=N\NC(=O)CNC(=O)C(c1ccccc1)c1ccccc1)c1ccc(C)cc1,-9.33
19,CCOC(=O)c1c(/N=C/C2=C(O)CCCC2=O)sc(C)c1C,-10.7
20,O=C(Cn1c(=O)n(-c2cccc(C(F)(F)F)c2)c(=O)c2sccc21)NCC1CCCO1 (stereo not drawn),24.9
21,Cc1c(NC(=O)COC(=O)Cn2cc(C(F)(F)F)ccc2=O)cccc1[N+](=O)[O-],-10
22,Cc1cc(C)nc(NC(=O)c2csnn2)c1,17.8

row,Compound,"hERG current change (%, negative = inhibition) at 10uM [%]"
1,COc1ccc(NC(=S)N2CCC(c3nc4ccccc4[nH]3)CC2)c(OC)c1,-8.79
2,C=CCNc1nc(-c2ccc(O)c(C(N)=O)c2)cs1.Cl,-1.47
3,CC(=O)N1N=C(c2c(-c3ccccc3)c3cc(Br)ccc3[nH]c2=O)CC1c1ccco1 (stereo not drawn),-2.19
4,Cn1c(-c2ccccc2)cc(=O)c2ccccc21,-2.4
5,COc1ccc(C2C(C(=O)c3ccco3)=C(O)C(=O)N2c2nnc(C)s2)cc1 (stereo not drawn),15.4
6,COC(=O)c1ccsc1-n1cc(C#N)c(=O)n(C)c1=O,11.9
7,Cn1cc(CN2CCC(CO)CC2)c(-c2ccc(Oc3ccccc3)cc2)n1,-67.5
8,Cc1cccc(NC(=S)Nc2ccc(N3CCOCC3)cc2)c1C,0.0685
9,Cc1ccc(C(=O)N/N=C/c2ccc(OC(=O)c3ccccc3Cl)cc2)cn1,14.4
10,FC(F)(F)C1CC(c2cccs2)Nc2ncnn21 (stereo not drawn),10
11,O=C1c2ccccc2C(=O)N1CCC(c1ccc(F)cc1)c1ccco1 (stereo not drawn),-6.1
12,Cc1nn(Cc2cccc3ccccc23)c(C)c1NC(=O)c1cccnc1,6.74
13,O=C(OCC(=O)c1ccccc1Br)c1ccccn1,8.23
14,C(=N\c1ncnc2sccc12)/NOCc1ccccc1,-12.6
15,Cc1cc(NC(=O)C2C3C(=O)N(Cc4ccc(Cl)cc4)C(C(=O)NC(C)(C)C)C34C=CC2(C)O4)no1 (stereo not drawn),15.7
16,COC(=O)c1ccc(CSc2nnnn2-c2ccc(C)cc2C)o1,-18.5
17,O=C(CSc1ncnc2c1cnn2-c1ccccc1)NC1CCS(=O)(=O)C1 (stereo not drawn),-10.2
18,COc1ccc(CNC(=O)C2CC(c3ccc(OC)cc3)=NO2)cc1 (stereo not drawn),5.69
19,NC(=S)NCc1cccnc1,24.7
20,CCCCCCCOc1ccc(OC(=O)c2cccnc2)cc1,13.8
21,O=C1NC(c2ccccc2)=C(c2nc3ccccc3s2)C(c2ccccc2)N1 (stereo not drawn),-8.6
22,CCO[C@H]1OC(C(=O)N2CCN(Cc3ccc4c(c3)OCO4)CC2)=C[C@@H](C(C)(C)C)[C@@H]1CCCO,-40.6

row,Compound,"hERG current change (%, negative = inhibition) at 10uM [%]"
1,O=C(c1ccc(Cl)c(S(=O)(=O)NCc2cccnc2)c1)N1CCCC1,7.22
2,COc1ccc(OC)c(NC(=O)CN2CCc3ccccc3C2)c1,0.823
3,CCOC(=O)N1CCN(C(=O)c2ccc(OC)cc2)CC1,19.8
4,COc1ccc(-n2c(C)c(C(C)=O)c3cc(OCC(N)=O)ccc32)cc1,-12.9
5,C=CCn1c(Cc2ccc(OC)cc2)nnc1SCc1nc2ccccc2c(=O)[nH]1,-11.7
6,Cc1ccc(-c2ccc(/C=C3\SC(N4CCOCC4)=NC3=O)o2)cc1,-64.8
7,Cc1cc(Br)ccc1N=C1C(=O)Nc2ccccc21,7.54
8,Cc1cc(OC(C)C(=O)NC(Cc2c[nH]c3ccc(O)cc23)C(=O)O)c2c(C)cc(=O)oc2c1 (stereo not drawn),6.77
9,COc1ccc(-c2noc(C3CCCN(C(=O)CCc4ccccc4)C3)n2)cc1 (stereo not drawn),-30.7
10,O=C(COc1ccc2ccccc2c1)N[C@@H](C(=O)O)c1ccc(O)cc1,20.5
11,Cc1ccc(NC(=O)CSCC(=O)OCc2cc(=O)oc3cc(O)ccc23)c(C)c1,-53.2
12,COc1ccc(-n2c(Cc3cccn3C)nnc2SCC(=O)Nc2cc(Cl)ccc2OC)cc1,-97.9
13,CCC(=O)NC(=S)NNC(=O)COc1ccc(Br)cc1,14.4
14,O=c1ccccn1CCOc1ccccc1Cl,4.55
15,COc1ccccc1C(=O)Nc1ccc2c(c1)CCCN2C(=O)c1ccccc1,-39.8
16,Cc1cc(NC(=O)CSc2nnc(-c3ccccc3Cl)o2)no1,14.7
17,CCC1(C)Cc2ccccc2-c2[nH]c(=S)[nH]c(=O)c21 (stereo not drawn),14
18,COc1cccc(N2CCN(C(=O)c3ccc(N4C(=O)NC5CC4(C)Oc4ccccc45)cc3)CC2)c1 (stereo not drawn),4.64
19,Cc1c(C(=O)OCC(=O)Nc2ccc(C(=O)N(C)C)cc2)oc2ccccc12,-6.16
20,CC(C)CCn1c(SCC(=O)OCn2nnc3ccccc3c2=O)nc2ccccc2c1=O,-16.2
21,CCOc1ccc(OCC)c(S(=O)(=O)n2ccnc2C)c1,11.5
22,Cc1nn(Cc2ccc(F)cc2)c(C)c1NC(=O)c1cccnc1Cl,7.72

row,Compound,"hERG current change (%, negative = inhibition) at 10uM [%]"
1,CCOC(=O)c1c(NC(=O)C2CCCO2)sc(C(N)=O)c1C (stereo not drawn),2.64
2,Cc1cc2ccccc2c(=O)n1CC(=O)NCCC1=CCCCC1,8.01
3,COc1ccc(C(=O)C2CCCN(C(=O)c3ccc(OC)o3)C2)c(C)c1 (stereo not drawn),-24.3
4,Cc1ccc(-c2nc(C#N)c(NCc3cccc4c3OCO4)o2)cc1,-13.9
5,Cc1[nH]n(-c2ccccc2)c(=O)c1C(=O)c1ccccc1,8.7
6,CC(C)Cn1c(-c2cccs2)nc2ccccc21,-23.3
7,COc1ccc(CNCCc2c[nH]c3ccccc23)c(OC)c1OC.O=C(O)C(=O)O,-7.44
8,Cc1ccnc(NC(=O)CCC(=O)N(CC(=O)NC(C)(C)C)Cc2ccc3c(c2)OCO3)c1,1.71
9,COc1cc(NC(=O)c2ccccc2Cl)c2ncccc2c1,-2.71
10,CCOc1ccc(S(=O)(=O)NCCC(=O)NCC2CCCO2)cc1 (stereo not drawn),8.51
11,COC(=O)COc1ccc(S(=O)(=O)Nc2ccc3c(c2)OCO3)cc1,11.6
12,CCn1nc(C)cc1C(=O)N1CCCC(C(=O)c2ccc(OC)cc2C)C1 (stereo not drawn),3.32
13,O=C(CCc1ccccc1)N1CCN(c2ccccn2)CC1,-9.9
14,O=C(Cn1cccn1)N1CCCC(Nc2ccc(F)c(F)c2)C1 (stereo not drawn),-30.9
15,O=C(NC(=S)Nc1ncccn1)c1ccc(Cl)cc1Cl,16.1
16,CCOC(=O)c1cc(-c2cccs2)nc2onc(C)c12,9.35
17,CCOc1cc(N2CCOCC2)c(OCC)cc1NC(=O)c1ccc2ncsc2c1,11.3
18,Cc1ccc(/C=C/S(=O)(=O)NCC(=O)OCC(=O)Nc2ccc(C(N)=O)cc2)cc1,-14.2
19,COc1ccc(C2CC(c3c(O)cc(C)oc3=O)=NCCS2)c(OC)c1 (stereo not drawn),-10.7
20,Cc1nc(N2CCN(c3ccccc3O)CC2)c2c(-c3ccccc3)csc2n1,10.3
21,NC(=O)c1ccsc1NC(=O)c1ccc(S(=O)(=O)N2CCCCC2)cc1,-31.5
